The list shows a part of the results, in another mix than the full data. The list includes weakly bound sequences.
The sequences below were run against T1, GST-Ap-NF-kB RHD (UniProt A0A913YAJ5) (assay: protein-binding microarray (PBM)). Conditions: PBM: ~300 nM protein, 6 mM HEPES pH 7.8, 80 mM KCl, 0.5 mM EDTA, 0.5 mM EGTA, 6% glycerol, 35 ng/ul poly-dIdC, 1% milk, 1 h, room temperature; high values mean tight binding; double strand, one strand shown.
T1 sequence: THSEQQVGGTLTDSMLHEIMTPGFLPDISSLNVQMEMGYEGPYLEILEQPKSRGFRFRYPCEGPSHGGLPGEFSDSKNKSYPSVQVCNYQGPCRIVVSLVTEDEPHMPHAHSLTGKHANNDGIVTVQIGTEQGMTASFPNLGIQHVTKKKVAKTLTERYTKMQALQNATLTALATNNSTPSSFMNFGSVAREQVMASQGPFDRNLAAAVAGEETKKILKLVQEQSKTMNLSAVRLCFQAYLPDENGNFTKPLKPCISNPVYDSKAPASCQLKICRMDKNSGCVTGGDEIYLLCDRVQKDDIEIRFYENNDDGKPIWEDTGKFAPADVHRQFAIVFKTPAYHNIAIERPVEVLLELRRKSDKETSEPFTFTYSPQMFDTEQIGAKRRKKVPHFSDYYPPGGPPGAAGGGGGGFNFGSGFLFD

| Sequence | binding signal [z-score] |
| --- | --- |
| CCGATTAACATCAATCAGTATGATGATGTTAATCGGGTCTTGATTCGCTTGACGCTGCTG | -1.2 |
| CCGATTAACATCAGAGCGGGTTTTGATGTTAATCGGGTCTTGATTCGCTTGACGCTGCTG | 0.94 |
| CCGATTAACATCAATGCGGTGCGTGATGTTAATCGGGTCTTGATTCGCTTGACGCTGCTG | 0.15 |
| CCGATTAACATCATCGATGGCCTTGATGTTAATCGGGTCTTGATTCGCTTGACGCTGCTG | -0.489 |
| CCGATTAACATCAAGCACAGAGCTGATGTTAATCGGGTCTTGATTCGCTTGACGCTGCTG | -0.369 |
| CCGATTAACATCAAGAAATTCCATGATGTTAATCGGGTCTTGATTCGCTTGACGCTGCTG | -0.642 |
| CCGATTAACATCAAAGAAGTTGGTGATGTTAATCGGGTCTTGATTCGCTTGACGCTGCTG | -0.171 |
| CCGATTAACATCATGTAACGGAGTGATGTTAATCGGGTCTTGATTCGCTTGACGCTGCTG | 0.288 |
| CCGATTAACATCAGTGCGCGTGTTGATGTTAATCGGGTCTTGATTCGCTTGACGCTGCTG | 0.586 |
| CCGATTAACATCACTAATCTTTTTGATGTTAATCGGGTCTTGATTCGCTTGACGCTGCTG | -0.562 |
| CCGATTAACATCACAACGTCTTATGATGTTAATCGGGTCTTGATTCGCTTGACGCTGCTG | -0.46 |
| CCGATTAACATCAGGCAAAACCCTGATGTTAATCGGGTCTTGATTCGCTTGACGCTGCTG | 0.663 |
| CCGATTAACATCAAATAGGCTCATGATGTTAATCGGGTCTTGATTCGCTTGACGCTGCTG | -0.2 |
| CCGATTAACATCAAGTCACGGGTTGATGTTAATCGGGTCTTGATTCGCTTGACGCTGCTG | -0.107 |
| CCGATTAACATCAACTAAATTCCTGATGTTAATCGGGTCTTGATTCGCTTGACGCTGCTG | -0.401 |
| CCGATTAACATCACTGGGATTGATGATGTTAATCGGGTCTTGATTCGCTTGACGCTGCTG | 0.536 |
| CCGATTAACATCAACCGAACTTTTGATGTTAATCGGGTCTTGATTCGCTTGACGCTGCTG | -0.739 |
| CCGATTAACATCACGCCGACTTTTGATGTTAATCGGGTCTTGATTCGCTTGACGCTGCTG | 0.568 |
| CCGATTAACATCAGGGTTCAGGCTGATGTTAATCGGGTCTTGATTCGCTTGACGCTGCTG | 0.115 |
| CCGATTAACATCACAATGTGTGATGATGTTAATCGGGTCTTGATTCGCTTGACGCTGCTG | -0.891 |

| Sequence | binding signal [z-score] |
| --- | --- |
| CCGATTAACATCATATGGGATCGTGATGTTAATCGGGTCTTGATTCGCTTGACGCTGCTG | 0.504 |
| CCGATTAACATCAAGCGATCTCCTGATGTTAATCGGGTCTTGATTCGCTTGACGCTGCTG | -0.154 |
| CCGATTAACATCAGGAATTTGCATGATGTTAATCGGGTCTTGATTCGCTTGACGCTGCTG | -0.216 |
| CCGATTAACATCAAGCGAATGTATGATGTTAATCGGGTCTTGATTCGCTTGACGCTGCTG | -0.283 |
| CCGATTAACATCAATTTCGCGTTTGATGTTAATCGGGTCTTGATTCGCTTGACGCTGCTG | -0.647 |
| CCGATTAACATCAAACATGGGCTTGATGTTAATCGGGTCTTGATTCGCTTGACGCTGCTG | -0.677 |
| CCGATTAACATCAGGAATTTCACTGATGTTAATCGGGTCTTGATTCGCTTGACGCTGCTG | 0.173 |
| CCGATTAACATCAAGATGAACCATGATGTTAATCGGGTCTTGATTCGCTTGACGCTGCTG | -0.0737 |
| CCGATTAACATCAGCGCCAGAGATGATGTTAATCGGGTCTTGATTCGCTTGACGCTGCTG | -0.133 |
| CCGATTAACATCAGGAATTTCAATGATGTTAATCGGGTCTTGATTCGCTTGACGCTGCTG | -0.164 |
| CCGATTAACATCACGCTGCACGCTGATGTTAATCGGGTCTTGATTCGCTTGACGCTGCTG | -0.309 |
| CCGATTAACATCACAGCGTGAGGTGATGTTAATCGGGTCTTGATTCGCTTGACGCTGCTG | 0.201 |
| CCGATTAACATCAAAAAATCCCGTGATGTTAATCGGGTCTTGATTCGCTTGACGCTGCTG | 5.57 |
| CCGATTAACATCAGGACACTCCCTGATGTTAATCGGGTCTTGATTCGCTTGACGCTGCTG | 1.81 |
| CCGATTAACATCATTCTTTTAGATGATGTTAATCGGGTCTTGATTCGCTTGACGCTGCTG | -0.982 |
| CCGATTAACATCATTGCTGAGAATGATGTTAATCGGGTCTTGATTCGCTTGACGCTGCTG | -0.423 |
| CCGATTAACATCACGAGGTTGACTGATGTTAATCGGGTCTTGATTCGCTTGACGCTGCTG | 0.402 |
| CCGATTAACATCAGATAAATTCCTGATGTTAATCGGGTCTTGATTCGCTTGACGCTGCTG | -0.719 |
| CCGATTAACATCAGATCACCACATGATGTTAATCGGGTCTTGATTCGCTTGACGCTGCTG | 0.0198 |
| CCGATTAACATCATCTCCAGGTCTGATGTTAATCGGGTCTTGATTCGCTTGACGCTGCTG | 0.0153 |

These sequences were tested against T2, GST-Nv-NF-kB (Cys allele) (UniProt E5G601) (assay: protein-binding microarray (PBM)). Conditions: PBM: ~300 nM protein, 6 mM HEPES pH 7.8, 80 mM KCl, 0.5 mM EDTA, 0.5 mM EGTA, 6% glycerol, 35 ng/ul poly-dIdC, 1% milk, 1 h, room temperature; Ap Aiptasia and Nv Nematostella (sea anemones) / Co Capsaspora / Aq Amphimedon (sponge) / Dm Drosophila / Hu human; RHD is the Rel homology domain; high values mean tight binding; most listed sequences are background and not binding sites; double strand, one strand shown.
T2 sequence: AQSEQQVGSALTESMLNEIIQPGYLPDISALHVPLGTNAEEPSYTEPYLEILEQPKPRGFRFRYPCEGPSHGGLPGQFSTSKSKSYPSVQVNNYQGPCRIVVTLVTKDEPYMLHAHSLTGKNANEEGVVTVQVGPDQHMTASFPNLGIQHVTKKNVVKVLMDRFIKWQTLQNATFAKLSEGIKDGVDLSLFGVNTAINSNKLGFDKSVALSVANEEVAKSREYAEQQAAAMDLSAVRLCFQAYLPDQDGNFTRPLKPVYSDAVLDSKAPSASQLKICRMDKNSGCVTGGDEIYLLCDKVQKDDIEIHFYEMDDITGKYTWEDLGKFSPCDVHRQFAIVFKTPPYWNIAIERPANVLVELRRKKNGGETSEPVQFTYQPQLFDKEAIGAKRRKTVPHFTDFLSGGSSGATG

| Sequence | binding signal [z-score] |
| --- | --- |
| CCGATTAACATCAATCAGTATGATGATGTTAATCGGGTCTTGATTCGCTTGACGCTGCTG | -0.643 |
| CCGATTAACATCAGAGCGGGTTTTGATGTTAATCGGGTCTTGATTCGCTTGACGCTGCTG | 0.649 |
| CCGATTAACATCAATGCGGTGCGTGATGTTAATCGGGTCTTGATTCGCTTGACGCTGCTG | -0.237 |
| CCGATTAACATCATCGATGGCCTTGATGTTAATCGGGTCTTGATTCGCTTGACGCTGCTG | -0.128 |
| CCGATTAACATCAAGCACAGAGCTGATGTTAATCGGGTCTTGATTCGCTTGACGCTGCTG | -0.431 |
| CCGATTAACATCAAGAAATTCCATGATGTTAATCGGGTCTTGATTCGCTTGACGCTGCTG | 0.00454 |
| CCGATTAACATCAAAGAAGTTGGTGATGTTAATCGGGTCTTGATTCGCTTGACGCTGCTG | -0.0337 |
| CCGATTAACATCATGTAACGGAGTGATGTTAATCGGGTCTTGATTCGCTTGACGCTGCTG | -0.519 |
| CCGATTAACATCAGTGCGCGTGTTGATGTTAATCGGGTCTTGATTCGCTTGACGCTGCTG | 0.00785 |
| CCGATTAACATCACTAATCTTTTTGATGTTAATCGGGTCTTGATTCGCTTGACGCTGCTG | -0.237 |
| CCGATTAACATCACAACGTCTTATGATGTTAATCGGGTCTTGATTCGCTTGACGCTGCTG | -0.637 |
| CCGATTAACATCAGGCAAAACCCTGATGTTAATCGGGTCTTGATTCGCTTGACGCTGCTG | 0.406 |
| CCGATTAACATCAAATAGGCTCATGATGTTAATCGGGTCTTGATTCGCTTGACGCTGCTG | -0.661 |
| CCGATTAACATCAAGTCACGGGTTGATGTTAATCGGGTCTTGATTCGCTTGACGCTGCTG | -0.389 |
| CCGATTAACATCAACTAAATTCCTGATGTTAATCGGGTCTTGATTCGCTTGACGCTGCTG | -0.0331 |
| CCGATTAACATCACTGGGATTGATGATGTTAATCGGGTCTTGATTCGCTTGACGCTGCTG | -0.127 |
| CCGATTAACATCAACCGAACTTTTGATGTTAATCGGGTCTTGATTCGCTTGACGCTGCTG | 0.343 |
| CCGATTAACATCACGCCGACTTTTGATGTTAATCGGGTCTTGATTCGCTTGACGCTGCTG | 0.0035 |
| CCGATTAACATCAGGGTTCAGGCTGATGTTAATCGGGTCTTGATTCGCTTGACGCTGCTG | 0.148 |
| CCGATTAACATCACAATGTGTGATGATGTTAATCGGGTCTTGATTCGCTTGACGCTGCTG | -0.287 |

| Sequence | binding signal [z-score] |
| --- | --- |
| CCGATTAACATCATATGGGATCGTGATGTTAATCGGGTCTTGATTCGCTTGACGCTGCTG | -1.05 |
| CCGATTAACATCAAGCGATCTCCTGATGTTAATCGGGTCTTGATTCGCTTGACGCTGCTG | -0.713 |
| CCGATTAACATCAGGAATTTGCATGATGTTAATCGGGTCTTGATTCGCTTGACGCTGCTG | 0.449 |
| CCGATTAACATCAAGCGAATGTATGATGTTAATCGGGTCTTGATTCGCTTGACGCTGCTG | -0.261 |
| CCGATTAACATCAATTTCGCGTTTGATGTTAATCGGGTCTTGATTCGCTTGACGCTGCTG | -0.497 |
| CCGATTAACATCAAACATGGGCTTGATGTTAATCGGGTCTTGATTCGCTTGACGCTGCTG | 0.106 |
| CCGATTAACATCAGGAATTTCACTGATGTTAATCGGGTCTTGATTCGCTTGACGCTGCTG | -0.188 |
| CCGATTAACATCAAGATGAACCATGATGTTAATCGGGTCTTGATTCGCTTGACGCTGCTG | -1.32 |
| CCGATTAACATCAGCGCCAGAGATGATGTTAATCGGGTCTTGATTCGCTTGACGCTGCTG | -1.06 |
| CCGATTAACATCAGGAATTTCAATGATGTTAATCGGGTCTTGATTCGCTTGACGCTGCTG | -0.126 |
| CCGATTAACATCACGCTGCACGCTGATGTTAATCGGGTCTTGATTCGCTTGACGCTGCTG | -0.689 |
| CCGATTAACATCACAGCGTGAGGTGATGTTAATCGGGTCTTGATTCGCTTGACGCTGCTG | -0.682 |
| CCGATTAACATCAAAAAATCCCGTGATGTTAATCGGGTCTTGATTCGCTTGACGCTGCTG | 6.22 |
| CCGATTAACATCAGGACACTCCCTGATGTTAATCGGGTCTTGATTCGCTTGACGCTGCTG | 2.51 |
| CCGATTAACATCATTCTTTTAGATGATGTTAATCGGGTCTTGATTCGCTTGACGCTGCTG | -0.0832 |
| CCGATTAACATCATTGCTGAGAATGATGTTAATCGGGTCTTGATTCGCTTGACGCTGCTG | -0.529 |
| CCGATTAACATCACGAGGTTGACTGATGTTAATCGGGTCTTGATTCGCTTGACGCTGCTG | -1.11 |
| CCGATTAACATCAGATAAATTCCTGATGTTAATCGGGTCTTGATTCGCTTGACGCTGCTG | -0.397 |
| CCGATTAACATCAGATCACCACATGATGTTAATCGGGTCTTGATTCGCTTGACGCTGCTG | -0.549 |
| CCGATTAACATCATCTCCAGGTCTGATGTTAATCGGGTCTTGATTCGCTTGACGCTGCTG | -0.816 |

— PMC5700166
